Not every entry of the source has a single result; some have several. They are shown here; other results are not. An entry can have further records. The values listed for one entry are repeated measurements in other runs, samples, wells, individuals or studies.
Tests used:
Type in all cases: toxicity, cell-based
Fibroblast = experiment: Multiplex assay against human fibroblast; settings: 10 µM, compound concentration 10 uM
In short: (§1)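 With compound added, live cells were imaged on a CQ1 microscope at 37°C and 5% CO2; staining with Hoechst33342, BioTracker Green Microtubule Cytoskeleton Dye, MitoTracker Red and Annexin V Alexa Fluor 680 had been done at seeding. The CellPathfinder machine-learning gating scheme split cells into Hoechst high-intensity objects or normal cells, normal cells into healthy, pyknosed or fragmented nuclei, and pyknosed cells into mitotic or apoptotic. The tubulin, mitochondrial-mass and membrane-permeability phenotypes are per cents of healthy-nucleus cells.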

HEK-293T = experiment: Multiplex assay against HEK293T; settings: human, 10 µM, compound concentration 10 uM; in short: as §1;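 for Population Tubulin-Different-Phenotype (%): share of the cells with healthy nuclei that show this phenotype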
U2OS = experiment: Multiplex assay against U2OS; settings: human, 10 µM, compound concentration 10 uM; in short: as §1

## Cn1cncc1[C@@](O)(COc1ccc(C#N)cc1-c1ccc(OC(F)(F)F)cc1)c1ccc(C#N)cc1 [A-108]
Fibroblast; 12 h, replicate 1
  Population Tubulin-Different-Phenotype (%): 67% and 10%
Fibroblast; 12 h, replicate 2
  Population Mitochondria Different-Phenotype (%): 10% and 76%
Fibroblast; 24 h, replicate 1
  Population Mitochondria Different-Phenotype (%): 42% and 3%
  Population Tubulin-Different-Phenotype (%): 61% and 5%
HEK-293T; 12 h, replicate 1
  Population Membrane Permeable-Phenotype (%): 59% and 8%
  Population Tubulin-Different-Phenotype (%): 93% and 8%
HEK-293T; 12 h, replicate 2
  Population Membrane Permeable-Phenotype (%): 57% and 2%
  Population Pyknosed Nuclei (%): 19% and 5%
  Population Tubulin-Different-Phenotype (%): 96% and 15%
HEK-293T; 24 h, replicate 1
  Population Membrane Permeable-Phenotype (%): 61% and 10%
  Population Pyknosed Nuclei (%): 28% and 9%
  Population Tubulin-Different-Phenotype (%): 95% and 16%
HEK-293T; 24 h, replicate 2
  Population Fragmented Nuclei (%): 5% and 26%
  Population Membrane Permeable-Phenotype (%): 64% and 8%
  Population Pyknosed Nuclei (%): 20% and 2%
U2OS; 12 h, replicate 1
  Population Fragmented Nuclei (%): 12% and 3%
  Population Tubulin-Different-Phenotype (%): 96% and 25%
U2OS; 12 h, replicate 2
  Population Fragmented Nuclei (%): 19% and 6%
  Population Membrane Permeable-Phenotype (%): 28% and 8%
  Population Pyknosed Nuclei (%): 19% and 2%
  Population Tubulin-Different-Phenotype (%): 91% and 27%
U2OS; 24 h, replicate 1
  Population Apoptotic (%): 71% and 22%
  Population Tubulin-Different-Phenotype (%): 66% and 21%
U2OS; 24 h, replicate 2
  Population Membrane Permeable-Phenotype (%): 35% and 9%
  Population Pyknosed Nuclei (%): 25% and 5%

## NC(=O)Nc1cc(-c2cccc(F)c2)sc1C(=O)N[C@H]1CCCNC1 [AZD-7762]
Fibroblast; 12 h, replicate 1
  Population Tubulin-Different-Phenotype (%): 22% and 5%
Fibroblast; 12 h, replicate 2
  Population Hoechst High Intensity Objects (%): 5% and 32%
  Population Mitochondria Different-Phenotype (%): 31% and 0%
  Population Pyknosed Nuclei (%): 52% and 12%
Fibroblast; 24 h, replicate 1
  Population Membrane Permeable-Phenotype (%): 12% and 3%
  Population Mitotic Cells (%): 62% and 17%
  Population Tubulin-Different-Phenotype (%): 26% and 1%
Fibroblast; 24 h, replicate 2
  Population Fragmented Nuclei (%): 59% and 16%
  Population Mitochondria Different-Phenotype (%): 3% and 80%
  Population Mitotic Cells (%): 42% and 7%
  Population Tubulin-Different-Phenotype (%): 15% and 90%
HEK-293T; 12 h, replicate 1
  Population Apoptotic (%): 74% and 21%
  Population Healthy Nuclei (%): 12% and 54%
  Population Mitochondria Different-Phenotype (%): 88% and 11%
  Population Mitotic Cells (%): 25% and 78%
  Population Tubulin-Different-Phenotype (%): 50% and 8%
  Total Cell Count: 177 and 740
HEK-293T; 12 h, replicate 2
  Total Cell Count: 179 and 1099
HEK-293T; 24 h, replicate 1
  Population Healthy Nuclei (%): 40% and 7%
  Population Mitochondria Different-Phenotype (%): 23% and 100%
  Total Cell Count: 701 and 184
HEK-293T; 24 h, replicate 2
  Population Healthy Nuclei (%): 6% and 34%
  Total Cell Count: 175 and 1041
U2OS; 12 h, replicate 2
  Population Mitochondria Different-Phenotype (%): 31% and 8%
  Population Tubulin-Different-Phenotype (%): 21% and 4%
U2OS; 24 h, replicate 1
  Population Fragmented Nuclei (%): 44% and 13%
  Population Membrane Permeable-Phenotype (%): 15% and 92%
  Population Tubulin-Different-Phenotype (%): 7% and 85%
U2OS; 24 h, replicate 2
  Population Mitotic Cells (%): 7% and 29%

Reference: ChEMBL document CHEMBL4689842, “EUbOPEN Chemogenomics Library wave 1” (2021)
